Out of some 48,000 compounds screened, about 450 (0.94%) were called active. About 19% were inconclusive and are not listed. Calls come from the whole dose curve; as a rule, active = well fitted inhibition curve with a large enough effect; inconclusive = small, poorly fitted or top-dose-only effect; inactive = no such curve, though single readings can be large or run the other way. The list shows a part of the results.
assay: Primary qHTS for Identification of Small Molecule Inhibitors of Huntingtin Promoter Activity; details: HEK293 HTT promoter firefly luciferase reporter (activity 0% = vehicle and -100% = no light), 24 h; series mostly up to 57.5 µM; activity change, negative = inhibition: at the top concentration; note: nearly all actives have a fitted effect of over 50% in size
Method in brief: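 Quantitative HTS used concentration series of up to 57.5 uM final on HEK293 luciferase reporter cells, 24 h at 37 degrees C. Readout was Dual-Glo firefly luminescence.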

Activity change, negative = inhibition, inactive:
Cc1ccc(CCNC(=O)c2ccc(CS(=O)(=O)Cc3cccc(C)c3)o2)cc1 -25.6%
Cc1ccc(NC(=O)Cn2cc3c(n2)CCC(C)C3)cc1C (stereo unspecified) -16.8%
CCn1ccc2cc(S(=O)(=O)N3CCCN(C(=O)NCC(=O)OC)CC3)ccc21 -21.1%
Cc1ccccc1C(=O)NC1(C(F)(F)F)N=C(c2ccccc2)N(Cc2ccccc2)C1=O (stereo unspecified) -24.3%
COc1cccc(-c2cc(C(F)(F)F)n3nc(C)c(-c4ccccc4)c3n2)c1 -10.7%
O=C(COc1ccccc1[N+](=O)[O-])Nc1cc(-c2nc3cc(Cl)ccc3o2)ccc1Cl 2.86%
COC(=O)c1ccc(Oc2nc3c(c(=O)n(C)c(=O)n3C)n2C(C)C)cc1 -8.9%
CCc1ccccc1N(C)C(=O)c1nn(C)c2c1CSc1ccccc1-2 -3.28%
Cc1ccc2nc(N3CCC(C(=O)NCc4ccc(F)cc4)CC3)[nH]c2c1 15.2%
CCC12CN3CC(C)(CN(C1)C3c1c[nH]c3ccc(OC)cc13)C2=O (stereo unspecified) -17.8%
Cc1ccc(OCC(=O)Nc2ccc3nc(SCC(=O)N4CCOCC4)sc3c2)cc1C -2.85%
CCC(Sc1nc2cc3c(cc2c(=O)n1CCCC(=O)NCc1ccc(OC)cc1)OCO3)C(=O)NCCCOC (stereo unspecified) -4.21%
CCOC(=O)C1CCCN(C(=O)CCS(=O)(=O)c2cc3c(cc2Cl)NC(=O)CO3)C1 (stereo unspecified) -9.95%
Cc1ccc2cccc(NC(=O)c3ccc(C#N)cc3F)c2n1 -7.16%
Cc1ccccc1NC(=O)Cn1c(=O)n(CCC(=O)NCc2ccc3c(c2)OCO3)c(=O)c2sccc21 -11.6%
O=C1CN(C(=O)c2ccc(S(=O)(=O)N3CCCCC3)cc2)C(c2ccc(F)cc2)c2cc(Br)ccc2N1 (stereo unspecified) -42.5%
COc1ccc(-c2onc(C)c2C)cc1S(=O)(=O)N1CCN(c2ccc(Cl)cc2)CC1 -4.7%
O=C(CSc1nc2c([nH]c3ccccc32)c(=O)n1-c1ccccc1)N1CCOCC1 -2.78%
CC(C)OC(=O)c1c(NC(=O)COc2cccc(Br)c2)sc2c1CCCC2 -0.518%
CC(CNC(=O)C1CCN(S(=O)(=O)c2ccc3c(ccn3C)c2)CC1)c1ccccc1 (stereo unspecified) 0%
COc1ccc(-c2coc3cc(O)ccc3c2=O)cc1 17.2%
Nc1nonc1C(=O)NCCNCc1cccc(Cl)c1Cl 7.12%
O=C1CC(c2cccc(O)c2)c2cc3c(cc2N1)OCO3 (stereo unspecified) -13.8%
CCCCN(CC)CCCNC(=O)C1CCCN(c2ncnc3c2nc2n3CCCCC2)C1 (stereo unspecified) -18.9% [at 11.5 µM]
COc1ccc(NC(=O)Cn2c(=O)n(Cc3ccccc3Cl)c(=O)c3cc(OC)c(OC)cc32)cc1OC -2.5%
Cc1ccc(NC(=O)c2c(C)oc3ccc(O)c(CN4CCCCCC4)c23)cc1 -14.2%
Cc1ccc(CCNC(=O)c2c(C)oc3nc(C)nc(N4CCOCC4)c23)cc1 0.337%
Cn1cc(-c2cc3n(n2)CCC(=O)N3CC(=O)NCc2ccc(Cl)cc2)c2ccccc21 0%
CCOc1ccc(CNC(=O)c2ccc3c(c2)nnn3C2CCCC2)cc1 -5.07%
Cc1cccc(Cn2c(=O)n(Cc3ccc4c(c3)OCO4)c(=O)c3oc4ccccc4c32)c1 -8.81%
CCc1ccccc1NC(=O)c1cc2nc(-c3ccc(OC)c(OC)c3)cc(C(F)(F)F)n2n1 -5.43%
O=c1oc2c(CN3CCCC3)c(O)ccc2cc1-c1ccccc1 25%
COc1ccccc1N1CCN(C(=O)Nc2cn(CC(C)C)c(=O)c3ccccc23)CC1 5.1%
CCOCCCNC(=O)c1c(NC(=O)c2cc(=O)c3ccccc3o2)sc2c1CCC2 -13.5%
COC(=O)c1ccc(NC(=O)Cn2c(=O)nc(-c3ccccc3)c3ccccc32)cc1 -35.5%
COc1cc2ccccc2cc1C(=O)Nc1ccc2oc(-c3ccc(Cl)cc3)nc2c1 -1.04%
O=C(Nc1ccc(C(=O)OCc2cc(=O)n3c4c(sc3n2)CCCC4)cc1)c1ccc(Cl)cc1 -7.61%
Cc1ccc2c(=O)cc(C(=O)Nc3c(C(=O)Nc4cccc(Cl)c4)oc4ccccc34)oc2c1 -8.67%
O=C(c1ccc(Br)s1)N(Cc1cccnc1)c1nc2ccc(F)cc2s1 -9.66%
CCOc1ccccc1NC(=O)CN1C(=O)COc2ccc(S(=O)(=O)N3CCCCC3)cc21 2.22%
Cc1ccc(N2C(=O)CSC23C(=O)N(CC(=O)NC2CCCCC2)c2ccccc23)cc1C (stereo unspecified) 2.15%
Oc1c(Br)cc(Br)c2cccnc12 -1.21%
Nc1nc(=O)n([C@@H]2O[C@H](CO)[C@@H](O)[C@@H]2F)cc1I 4.84%
CCOC(=O)c1c(C)oc2ncnc(Nc3cc(Cl)ccc3OC)c12 -0.511%
Cc1ccc2nc(COc3ccccc3NC(=O)COc3ccccc3Cl)cc(=O)n2c1 -9.78%
CSc1ncc(C(=O)NCc2ccc(C)cc2)c(-c2ccccc2)n1 10%
Cc1ccc(CNC(=O)C2CCN(S(=O)(=O)c3c(C)noc3/C=C/c3c(C)cc(C)cc3C)CC2)cc1 -16.2%
CCOc1ccccc1CNC(=O)CCCN1C(=O)c2cccnc2Oc2ccc(Cl)cc21 -12.2%
COc1ccccc1Cn1c(SCC(=O)C(C)(C)C)nc2ccccc2c1=O -38.9%
CCNC(=O)C1CCN(Cc2cc3ccccc3n2Cc2ccc(C)cc2)CC1 -15.7%
COC(=O)CN1C(C(=O)c2ccccc2)=C(OC(=O)c2ccc(C)cc2)c2ccccc2S1(=O)=O -12.1%
Clc1cccc(CSc2ccc(-c3cccs3)nn2)c1 13.6%
O=C(c1cccn1-c1nnc(N2CCCCC2)s1)N1CCN(c2ccccc2)CC1 -11.4%
CCn1c(=O)c2sccc2n2c(CCC(=O)NCc3ccc(Cl)cc3)nnc12 7.13%
N#Cc1ccc(CSc2nnc(-c3ccc(Br)cc3)o2)cc1 -13.7%
CCOC(=O)C1CCN(C(=O)Cn2ncc3c4ccccc4n(C)c3c2=O)CC1 -6.91%
COc1ccc(CNC(=O)CCCN2C(=O)c3cccnc3Oc3ccc(Cl)cc32)cc1 -10.9%
Cc1cccc(NS(=O)(=O)c2nnc(NC(=O)c3cccc(C)c3)s2)c1 -3.8%
Cc1ccc(-n2c(SCC(=O)Nc3ccc4c(c3)OCCO4)nc3c([nH]c4ccccc43)c2=O)cc1 -10.7%
Cc1ccc(OCC(=O)Nc2sc3c(c2C(N)=O)CCCC3)c(C(C)(C)C)c1 -4.71%
CCOC(=O)c1ccc(NC(=O)CN2CCCCC2)cc1 15.5%
Cc1cccc(NC(=O)c2cc3c(=O)n4ccccc4nc3n2C)c1C -0.171%
CCCCNC(=O)Cn1cnc2sc(C)c(S(=O)(=O)N3CCN(c4ccccc4OC)CC3)c2c1=O -12%
CC(C)OCCCNC(=O)CN1C(=O)COc2ccc(S(=O)(=O)N3CCOCC3)cc21 -8.49%
COc1ccccc1NC(=O)c1ncoc1-c1ccco1 -15.4%
O=C(Cn1ncc2c3ccccc3n(Cc3ccccc3F)c2c1=O)NCCCc1ccccc1 -26%
CCOc1ccc2nc(NC(=O)c3ccccc3)sc2c1 30.9%
COC(=O)c1ccccc1NC(=O)CSc1nc2nc(C)cc(C)n2n1 -8.55%
CCOc1ccccc1C(=O)N(Cc1ccco1)Cc1ccccc1F -24.9%
O=c1c(N2CCCCC2)csc2ccc(F)cc12 43.5%
COc1ccc(-c2nc3ccccc3s2)cc1NC(=O)COc1cccc(C)c1 40.5%
CCc1nc2ccc(C(=O)NCc3cccc(Br)c3)cc2nc1CC -8.07%
CCc1ccc(S(=O)(=O)Nc2cc3c(cc2N2CCOCC2)n(C)c(=O)c(=O)n3C)cc1 -3%
CCOc1ccc(NC(=O)C(=O)NCCc2ccccc2)cc1 -1.29% [at 11.5 µM]
COc1ccc(C)cc1NC(=O)N1CCN(c2nnc(C)c3c(C)n(-c4ccccc4)nc23)CC1 5.02%
O=C(Cn1c(=O)n(CCCS(=O)(=O)C2CCCCC2)c(=O)c2ccccc21)Nc1ccc(F)c(Cl)c1 -6.13%
COCCCNC(=O)c1nn(-c2ccc(C)cc2)c(=O)n(C)c1=O 0.794%
Cc1cc(C)cc(NC(=O)CCCn2c(=O)c3cccn3c3ccccc32)c1 -8.02%
CCc1cccc(NC(=O)Cn2ncc3c([nH]c4ccc(C)cc43)c2=O)c1 0.901%
CCOc1ccccc1NC(=O)CCc1c(C)nc2c3cccnc3nn2c1C -7.33%
CCCCNc1sc(S(=O)(=O)CCC)nc1S(=O)(=O)c1ccc(C)cc1 -20.3%
CCNC(=O)c1c2c(nc3ccccc13)C(=O)N(C1CCCCC1)C2 -7.08%
O=C(NC1CC(=O)N(c2ccccc2)C1)c1ccco1 (stereo unspecified) -12.8%
COc1cccc(C(=O)NCCc2csc(-c3cccc(F)c3)n2)c1OC -18.9%
CCc1cccc(NC(=O)CN(c2ccc(C)cc2)S(=O)(=O)c2cccs2)c1 -22.4%
CC1(C)CC(=O)c2cc(-c3nc(-c4ccc(Cl)cc4)cs3)c(=O)n(-c3cccc(F)c3)c2C1 -13.9%
CC1(C)CCC(c2ccc(Cl)cc2)=C(CN2CCN(c3ccc(C(=O)NS(=O)(=O)c4ccc(N[C@H](CCN5CCOCC5)CSc5ccccc5)c(S(=O)(=O)C(F)(F)F)c4)cc3)CC2)C1 -6.17%
COc1cc(C)ccc1OCCSc1nc2ccc(NC(=O)c3ccc(C)cc3)cc2s1 2.36%
COc1ccc(-c2ccc(CCC(=O)O)n2CC(=O)Nc2cccc(Cl)c2C)cc1 -25.2%
CC(=O)c1cccc(Nc2nn(-c3ccc(OC(F)(F)F)cc3)nc2C(C)=O)c1 -28.6%
COc1ccc(CNC(=O)CCc2c(C)nc3nc(CNC(=O)OC(C)(C)C)nn3c2C)cc1 -15%
Cn1cc(C(=O)NCCc2ccccc2)c(=O)c2cc(S(=O)(=O)N3CCCCCC3)ccc21 -21.2% [at 11.5 µM]
Cc1c(C(=O)N(Cc2ccc(N(C)C)cc2)Cc2ccco2)oc2cc(Br)ccc12 -11.7%
O=C(CN1C(=O)CC(c2ccco2)Sc2ccccc21)Nc1ccc(Br)cc1 (stereo unspecified) -27.2%
CCCSc1nnc2c(n1)OC(c1ccc(OCC(=O)O)cc1)Nc1ccccc1-2 (stereo unspecified) 62.7%
COc1ccccc1-c1noc(-c2ccc(NCc3cccnc3)c([N+](=O)[O-])c2)n1 -5.67%
